Source: the supplement of paper PMC3334620
In all, about 33,000 sequences were measured (“E-score (-0.5 to 0.5)”: median about -0.035, highest 2% from about 0.34 on). Some of the results follow.

molecular target: T1, Mot3 (UniProt P54785); assay: PBM E-score (8-mer binding enrichment) (E-score (-0.5 to 0.5)); higher = stronger / more preferred TF binding; most listed sequences are background and not binding sites; settings: protein concentration: 200 nM; construct: GST-full length
T1 sequence: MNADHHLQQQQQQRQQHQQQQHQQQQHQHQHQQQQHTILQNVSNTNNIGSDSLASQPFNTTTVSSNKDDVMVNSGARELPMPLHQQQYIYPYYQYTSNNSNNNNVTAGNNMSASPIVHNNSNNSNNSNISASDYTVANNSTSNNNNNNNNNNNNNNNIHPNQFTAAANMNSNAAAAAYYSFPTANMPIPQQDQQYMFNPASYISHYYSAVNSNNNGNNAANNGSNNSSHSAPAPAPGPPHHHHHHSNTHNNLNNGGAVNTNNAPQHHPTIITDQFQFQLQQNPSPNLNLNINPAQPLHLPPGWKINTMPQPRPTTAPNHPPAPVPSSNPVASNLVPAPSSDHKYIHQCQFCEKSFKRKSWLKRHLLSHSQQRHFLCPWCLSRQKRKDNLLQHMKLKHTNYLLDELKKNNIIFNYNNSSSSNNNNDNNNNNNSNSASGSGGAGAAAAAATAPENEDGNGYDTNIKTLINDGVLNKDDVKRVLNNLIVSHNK
Procedure: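 Universal 'all 10-mer' protein binding microarrays (Agilent AMADID 015681) probed with GST-tagged S. cerevisiae TFs (full-length or DBD) made by in vitro transcription/translation (PURExpress), about 100-200 nM. Bound TF was detected with fluorescent anti-GST. Each ungapped 8-mer (which stands for itself and its reverse complement) is scored by the PBM enrichment score (E-score), a modified Wilcoxon-Mann-Whitney statistic from -0.5 to +0.5, computed with the Universal PBM Analysis Suite. Scale: above 0.35 generally sequence-specific binding.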

| Sequence | PBM E-score |
| --- | --- |
| CCGTCCCC | -0.128 |
| ATACTTTA | 0.19 |
| ATCTCTAG | -0.173 |
| CCCAGCAG | -0.135 |
| AACTGGCA | -0.146 |
| CCGCATGC | -0.324 |
| CGGTACCC | -0.277 |
| GCGAATAC | 0.117 |
| AACAATGG | 0.019 |
| AACTCAAT | -0.0215 |
| CTTTGCGA | -0.125 |
| AAGGCCTA | -0.043 |
| ACCCTCTG | -0.219 |
| ACTTGACG | 0.134 |
| GAAAGGTC | -0.0526 |
| GCATGTTA | 0.385 |
| CGTGTTAG | 0.354 |
| AGGACGAG | -0.152 |
| ACTCATAT | -0.0444 |
| AAAGTGGA | -0.0636 |
| CGCGCTTA | 0.143 |
| CATTTACA | 0.363 |

| Sequence | PBM E-score |
| --- | --- |
| CTAGTTTA | 0.0483 |
| AATTGTGT | 0.2 |
| GAGAGGCC | -0.158 |
| GGTTGATA | -0.00089 |
| GTACGTGA | 0.0568 |
| AGGAAGTG | -0.0976 |
| CCGACACC | -0.142 |
| ATGAAATG | -0.183 |
| GGCTGAAC | -0.0542 |
| GCGTCTTA | -0.0476 |
| ATACGGTG | -0.0532 |
| AACTACCT | 0.141 |
| CCGGTAAC | 0.00834 |
| GCGCAACA | 0.106 |
| ACGACGTA | 0.207 |
| CTAAAGCC | -0.0284 |
| ATAAGTTG | -0.00969 |
| ATCAACAA | 0.224 |
| ACGATGCC | -0.0597 |
| CCCTGACG | -0.273 |
| GAACCATC | -0.0773 |
| CACGCGGA | 0.118 |

| Sequence | PBM E-score |
| --- | --- |
| ATGTACAC | 0.338 |
| CCCGGGGC | -0.281 |
| AACTCAGT | -0.0694 |
| GCGGATAA | 0.0223 |
| GACCAAAA | -0.0431 |
| AATAGCTA | 0.078 |
| GGGGTAGA | -0.0141 |
| GCTCTTAA | 0.0678 |
| CCTGTGAA | 0.254 |
| GATAGTCA | -0.0444 |
| GTATGGAA | -0.156 |
| TACACAAA | 0.369 |
| CCACCCAG | -0.124 |
| CCGCCAAA | -0.179 |
| AACTACAC | 0.31 |
| CATATTCC | -0.102 |
| CAGGTACA | 0.406 |
| GGGCTCCA | -0.279 |
| ATCTATAA | -0.0231 |
| AAAGCATA | 0.13 |
| CTTCGAGC | 0.117 |
| AAAATCTC | 0.109 |

| Sequence | PBM E-score |
| --- | --- |
| ATTCGCCA | -0.256 |
| GCCAAGAC | -0.186 |
| CTGACCAC | -0.141 |
| AGCCCTAG | 0.0768 |
| GCTAACCA | -0.114 |
| GGATTCAC | -0.0772 |
| ATTGGCTG | -0.202 |
| AGGCCTCC | -0.166 |
| CGGCTCAA | -0.102 |
| TCACCTCA | 0.031 |
| TATTGTAA | 0.215 |
| CGCCGGGC | -0.289 |
| GGAGGCCC | -0.266 |
| AAGTCGCT | -0.108 |
| GAGCTTAC | 0.0803 |
| CGTGATGA | -0.115 |
| ATGCTAAT | 0.115 |
| CATTAAAA | 0.242 |
| AATGTTGC | 0.145 |
| ATAGCAAT | 0.0903 |
